# Screen size: about 190,000 compounds; about 400 (0.21%) were called active. Inconclusive results, whose numbers are uncertain, are shown with a selection of clear calls.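 The calls were made as follows: active = percent activity GTP binding at least 20 points away from the 100% baseline, either down as inhibitor or up as activator; inconclusive = compound flagged as likely green fluorescent from well-wide comparison; inactive = the rest.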
# Molecular target: Cell division control protein 42 homolog (Homo sapiens) (UniProt P60953)
# Assay: wildtype Cdc42 fluorescent GTP binding changes, either direction – biochemical, multiplex bead flow cytometry, Bodipy-GTP, primary screen (AID 761);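 also: median bead fluorescence of bound Bodipy-FL-GTP at 100 nM; 0% = excess unlabeled GTP control and 100% = no compound control; below 100% means less GTP binding so inhibitor and above means activator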
# Settings: GST-Cdc42 beads, at 10 µM, actives lie on both sides
# UniProt P60953, sequence (P60953 whole entry, looked up): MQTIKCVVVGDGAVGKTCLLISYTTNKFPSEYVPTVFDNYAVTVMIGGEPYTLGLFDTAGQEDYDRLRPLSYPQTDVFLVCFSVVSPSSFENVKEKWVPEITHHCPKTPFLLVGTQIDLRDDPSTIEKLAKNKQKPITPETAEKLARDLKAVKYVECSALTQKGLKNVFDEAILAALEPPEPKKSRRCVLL
row,SMILES,percent activity (GTP binding)
1,O=C(Nc1cccc(O)c1)c1cc2nc(-c3ccccc3)cc(-c3ccccc3)n2n1,inconclusive: 91%
2,O=C(Nc1cccc(F)c1)C1CC(=O)N(c2ccc(Cl)cc2)C1 (stereo unspecified),inconclusive: 106%
3,COc1ccc(C(=O)C2CCCN(Cc3ccc4nonc4c3)C2)c(OC)c1 (stereo unspecified),inactive: 96%
4,Cc1ccc(S(=O)(=O)CCC(=O)Nc2ccc(S(=O)(=O)N(C)C)cc2)cc1,inactive: 99%
5,O=C(CSc1nnc2c(n1)[nH]c1ccccc12)Nc1ccc(S(=O)(=O)Nc2ncccn2)cc1,inconclusive: 79%
6,Cc1cc(C)n2ncc(C(=O)O)c2n1,active: 78%
7,COc1ccc(OC(=O)c2cccc(S(=O)(=O)N3CCCC3)c2)cc1,inconclusive: 91%
8,CCOc1ccc2nc(NC3=NC(c4ccc(OC)cc4)CC(=O)N3)nc(C)c2c1 (stereo unspecified),inconclusive: 106%
9,CCn1c(SCC(=O)NNC(=O)Cc2ccccc2)nnc1-c1ccccc1,inconclusive: 103%
10,COc1ccc(/C=C2\N=C(C)N(c3ccc4ccccc4c3)C2=O)cc1OC,inconclusive: 102%
11,S=C(Nc1ccc(Oc2ccccc2)cc1)NC1CCCCCC1,active: 79%
12,C/C(=N\OC(=O)c1ccccc1F)c1nccs1,inconclusive: 106%
13,CC(=O)Oc1ccc2c(=O)c(-c3nc4ccccc4s3)coc2c1,inactive: 97%
14,O=C(Nc1ccc(NC(=O)c2cccs2)cc1)c1ccc(Br)o1,inconclusive: 97%
15,O=C1Nc2ccccc2N(O)N1c1cc(-c2ccccc2)[nH]n1,inconclusive: 96%
16,COc1cc(C)c(S(=O)(=O)N2CCOCC2)cc1C(C)C,inconclusive: 105%
17,CC(C)C(C(=O)Nc1cccnc1)N1C(=O)c2ccccc2C1=O (stereo unspecified),inconclusive: 106%
18,O=C(C1CCN(S(=O)(=O)N2CCC3(CC2)OCCO3)CC1)N1CCOCC1,inconclusive: 99%
19,CCN(c1ccccc1)S(=O)(=O)c1ccc(OC)c(NC(=O)c2cccs2)c1,inconclusive: 87%
20,CC(=O)N1C(=O)/C(=C2\SC(=S)N(NS(=O)(=O)c3ccc(C)cc3)C2=O)c2ccccc21,inconclusive: 83%
21,CCC(=O)N1c2ccc(S(=O)(=O)CCC(=O)Nc3nccs3)cc2CC1C (stereo unspecified),inconclusive: 106%
22,O=S(=O)(N/N=C\c1cccnc1)c1ccccc1,inconclusive: 204%
23,COc1ccc(CNC(=O)c2noc(C)c2[N+](=O)[O-])cc1,inactive: 95%

row,SMILES,percent activity (GTP binding)
1,O=C(/C=C/c1ccccc1)Oc1coc(CSc2ncccn2)cc1=O,inactive: 91%
2,CCCNC(=O)Cn1c(=O)/c(=C\c2ccc(-c3ccc([N+](=O)[O-])cc3)o2)s/c1=C\C(=O)C(C)(C)C,inconclusive: 111%
3,Cc1cccc(N/N=C(\C#N)S(=O)(=O)C(C)(C)C)c1,inconclusive: 95%
4,Cc1cccc2sc(N(CCCN(C)C)C(=O)c3nc4ccccc4s3)nc12,inconclusive: 102%
5,CSc1ccccc1NC(=O)Cn1nc([N+](=O)[O-])cc1C,inactive: 94%
6,CC(=O)Nc1ccc(NC(=O)COC(=O)CCc2nc3ccccc3s2)cc1,inconclusive: 94%
7,N#Cc1nc(Cc2ccccc2)oc1NCCN1CCOCC1,inconclusive: 101%
8,CCN(C#N)c1nc(NC(C)C)nc(NC(C)(C)C)n1,inconclusive: 94%
9,Cc1ccc2[nH]c(=O)c(CN(C(=O)c3cccs3)c3ccccc3)cc2c1,inconclusive: 103%
10,COc1cc(NC(=O)c2cc3c(C)nc4ccccc4c3o2)cc(OC)c1OC,inconclusive: 93%
11,C/C(=N\NC(=O)c1cc(C)oc1C)c1ccc(N2CCOCC2)cc1,inconclusive: 92%
12,Cc1cc(-c2ccc(Cl)cc2)n2nc(N)nc2n1,inconclusive: 96%
13,COc1ccc(CN=C2Nc3ccccc3CS2)cc1,inconclusive: 105%
14,COc1ccc(-c2c(-c3ccc(O)cc3O)n[nH]c2C)cc1OC,inconclusive: 95%
15,COC(=O)c1sccc1NC(=S)N1CCN(c2cc(C)ccc2C)CC1,inactive: 100%
16,CC(CCc1ccccc1)NS(=O)(=O)c1ccccc1 (stereo unspecified),inactive: 100%
17,COc1ccc(NC(=O)c2cc(S(=O)(=O)N(Cc3ccccc3)c3ccccc3)ccc2Cl)cn1,inconclusive: 99%
18,Cc1cc(C)c(C(=O)CN2C(=O)NC3(CCC(C)CC3)C2=O)cc1C (stereo unspecified),inconclusive: 92%
19,CC(C)Sc1n[nH]c2nc3c(c(=O)n12)C1(CCCC1)Cc1ccccc1-3,inconclusive: 101%
20,O=CN1CCN(C(=O)c2ccccc2F)CC1,inconclusive: 90%
21,Cn1c(=O)[nH]c(=O)c2c1nc1n2CCN1Cc1ccccc1,inconclusive: 81%
22,CSc1ncccc1C(=O)Nc1ccc(S(=O)(=O)NC2=NCCCCC2)cc1,inconclusive: 106%
23,COc1cccc(N2CC(O)=C(c3ccccc3)C2=N)c1,inactive: 91%

row,SMILES,percent activity (GTP binding)
1,CCOc1c2ccc(C(=O)N[C@H](C)C3CCCCC3)cc2nn1CCOC,inconclusive: 135%
2,CCC(C)Sc1nc2c(c(=O)[nH]1)C(c1cccs1)C1=C(CCCC1=O)N2 (stereo unspecified),inconclusive: 91%
3,O=C(NC1CCCCC1)C(c1ccc(F)cc1)N(Cc1ccco1)C(=O)CN1C(=O)c2ccccc2S1(=O)=O (stereo unspecified),inactive: 95%
4,O=C(Cn1nnc(-c2ccccc2)n1)NNC(=O)c1ccc(Br)cc1,inconclusive: 91%
5,NC(=O)COC(=O)c1ccccc1OCc1ccccc1Cl,inactive: 107%
6,O=C1CC(c2cccs2)CC2=C1C(c1ccccc1)n1ncnc1N2 (stereo unspecified),inconclusive: 123%
7,COC(=O)c1sccc1NC(=O)Cn1cnc2c1c(=O)n(C)c(=O)n2C,inconclusive: 105%
8,Cc1ccc(-c2[nH]nc(N)c2N=Nc2cccc(Cl)c2C)cc1,inconclusive: 94%
9,O=C(NCCc1ccccc1)C1CCC(CNc2nc(=S)[nH]c3ccccc23)CC1 (stereo unspecified),inactive: 93%
10,CC(=O)/C(N)=N/Nc1cccc(Cl)c1,inconclusive: 95%
11,O=C(N/N=C/c1ccc(OCc2ccccc2)cc1)c1cccs1,inconclusive: 92%
12,CCOC(=O)c1nn(-c2ccc(F)cc2)c(C)c1C(C)=O,inconclusive: 104%
13,CC1CCN(CCCOc2ccc(Br)cc2Cl)CC1,inconclusive: 97%
14,Cc1ccc2oc3c(c(=O)c2c1)C(c1ccc(F)cc1)N(CCCN1CCOCC1)C3=O (stereo unspecified),inconclusive: 105%
15,CC1CCN(CCCNC(=O)c2ccc(Cn3c(=S)[nH]c4ccc(Br)cc4c3=O)cc2)CC1,inactive: 101%
16,COc1cc2c(C)nc3onc(-c4ccccc4)c3c2cc1OC,inconclusive: 89%
17,O=C(c1cccc2ccccc12)N1CCN(c2ccccc2F)CC1,inconclusive: 103%
18,S=C(NCc1ccccc1)N1CCn2cccc2C1c1cccnc1 (stereo unspecified),inactive: 98%
19,COc1ccc(C)cc1S(=O)(=O)N(C)CC(=O)NC1CC1,inconclusive: 104%
20,COc1cc(/C=N/NS(=O)(=O)c2ccccc2)ccc1OS(=O)(=O)c1ccc(C)cc1,inconclusive: 102%
21,COc1ccc(N(CC(=O)Nc2ccc3c(c2)OCO3)S(=O)(=O)c2ccc(C)cc2)cc1OC,inconclusive: 103%
22,COc1ccc2nc(N3CCCC3)c(C#N)cc2c1,inconclusive: 94%
23,O=CN1CCCN(Cc2nc(-c3cccc(Cl)c3)no2)CC1,inactive: 97%

row,SMILES,percent activity (GTP binding)
1,CCN(CC)C(=S)SCC(=O)Nc1nc(=O)c2ccccc2s1,inactive: 94%
2,O=C(CCn1c(=O)[nH]c2ccsc2c1=O)NCc1ccc(F)cc1,inactive: 98%
3,N#CCCN(C(=O)COC(=O)c1cccc(S(=O)(=O)Nc2ccc([N+](=O)[O-])cc2)c1)c1ccccc1,inconclusive: 92%
4,O=C(N/N=C/c1ccc(-c2ccccc2[N+](=O)[O-])o1)[C@H]1C[C@@H]1c1ccccc1,inconclusive: 99%
5,O=C1CS/C(=N/N=C2C3CC4CC(C3)CC2C4)N1,inconclusive: 134%
6,O=C(Nc1nc(-c2ccc(S(=O)(=O)N3CCCCCC3)cc2)cs1)c1ccccc1,inconclusive: 94%
7,CCOC(=O)C1=C(c2ccccc2)Nc2nc(C)nn2C1c1cccc(OC)c1OC (stereo unspecified),inactive: 99%
8,O=C(O)c1ccc(N2C(=O)/C(=C/c3ccc(-c4ccc([N+](=O)[O-])cc4)o3)C=C2c2ccccc2)cc1,active: 75%
9,O=C(NN=C1CCCC1)c1sc2ccccc2c1Cl,inconclusive: 95%
10,O=C(Nc1ccc(N2CCOCC2)nc1)c1ccc(C(F)(F)F)cc1,inconclusive: 93%
11,Cc1cc(C)nc(NC(=O)COc2cc(Cl)cc(Cl)c2)n1,inconclusive: 106%
12,O=C(c1ccco1)N(Cc1ccccc1)Cc1ccccn1,inactive: 97%
13,N#CC(C#N)=Cc1ccc(-c2ccc(S(=O)(=O)N=C(N)N)cc2)o1,inconclusive: 89%
14,O=C(N/N=C\c1ccc(F)cc1)c1cc(OCC(F)(F)F)ccc1OCC(F)(F)F,inconclusive: 104%
15,CCCC(CCC(=O)Nc1cc([N+](=O)[O-])ccc1O)C(=O)O (stereo unspecified),inconclusive: 90%
16,C=CCn1c(C)cc(C(=O)COC(=O)/C=C/c2cccc(OC)c2)c1C,inconclusive: 86%
17,O=C(NCc1cccnc1)c1ccc(-c2cccc(Cl)c2Cl)o1,inconclusive: 91%
18,CCOc1ccc(S(=O)(=O)N/N=C(\C)c2ccc(Cl)c(Cl)c2Cl)cc1,inconclusive: 92%
19,N/C(=N\OC(=O)COc1cc(Cl)c(Cl)cc1Cl)c1ccccn1,inactive: 91%
20,Cn1nc(C(=O)OCC(=O)Nc2ccc3ccccc3c2)c2ccccc2c1=O,inconclusive: 88%
21,CCCC(=O)c1cc2c(cc1NC(=O)c1ccccc1F)OCCO2,inactive: 99%
22,Cc1cc(C(=O)COC(=O)CCC(=O)c2ccc3c(c2)OCCO3)c(C)n1Cc1ccco1,inconclusive: 92%

# Reference: PubChem BioAssay AID761 (NMMLSC, 2007)
